Data published in the supplement of paper PMC12217912.
This is one part of the list. The full chains were built here from the parent and the listed change. Inactive controls read about 0.05.

B1: TEV protease; numbered along this chain (parent)
chain: MGESLFKGPRDYNPISSSICHLTNESDGHTTSLYGIGFGPFIITNKHLFRRNNGTLVVQSLHGVFKVKDTTTLQQHLVDGRDMIIIRMPKDFPPFPQKLKFREPQREERICLVTTNFQTKSMSSMVSDTSCTFPSGDGIFWKHWIQTKDGQCGSPLVSTRDGFIVGIHSASNFTNTNNYFTSVPKNFMELLTNQEAQQWVSGWRLNADSVLWGGHKVFMVKPEEPFQPVKEATQL

Variants of: B1
Assay: raw area under fraction-flipped curve 0-4 h after induction (AUC4h, not background-subtracted), DNA-recorder readout of cleavage of the substrate (dimensionless); higher = more cleavage of the substrate by the protease variant
Details: temperature: 34 °C; time window: 0-4 h after rhamnose induction
Procedure: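 In vivo DNA recorder in E. coli TOP10(DE3) ΔrhaA at 34 °C. Each TEVp single-site mutant (parent TEVp 0) is paired with a single-site variant of the 7-mer TEVs (canonical ENLYFQ|S). The substrate sits between flexible linkers in a Bxb1-sfGFP-TEVs-SsrA fusion, so cleavage stabilises Bxb1 and speeds flipping of a recombination array, read by NGS. The value is the raw area under the fraction-flipped curve over 0-4 h after rhamnose induction (AUC4h), with ≥20 reads per time point. It is not background-subtracted; inactive controls average about 0.047.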
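Note: Bxb1 expression induced with 0.2% (w/v) L-rhamnose at OD600 near 0.5, cultures sampled hourly, flipped fraction per protease–substrate barcode pair counted by paired-end Illumina sequencing.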

Variant | area with substrate EALYFQS | area with substrate ECLYFQS | area with substrate EFLYFQS | area with substrate EGLYFQS | area with substrate EMLYFQS | area with substrate EPLYFQS | area with substrate EQLYFQS | area with substrate ERLYFQS | area with substrate ESLYFQS | area with substrate EVLYFQS | area with substrate EWLYFQS | area with substrate EDLYFQS | area with substrate EELYFQS | area with substrate EHLYFQS | area with substrate EILYFQS | area with substrate EKLYFQS | area with substrate ELLYFQS | area with substrate EYLYFQS | area with substrate ETLYFQS
K185S | 0.128 | 0.15 | 0.106 | 0.103 | 0.113 | 0.142 | 0.11 | 0.0903 | 0.0887 | 0.106 | 0.0949 |  |  |  |  |  |  |  | 
K185C | 0.12 |  | 0.108 | 0.103 | 0.127 |  | 0.101 | 0.114 | 0.104 | 0.0987 |  | 0.128 | 0.123 | 0.123 | 0.0951 | 0.118 | 0.0815 | 0.139 | 
K185M | 0.164 | 0.121 |  | 0.0871 | 0.102 | 0.123 | 0.145 | 0.106 | 0.0975 | 0.0945 | 0.0828 |  |  | 0.122 |  | 0.14 | 0.097 |  | 0.108
M188N | 0.112 | 0.12 |  | 0.109 | 0.102 | 0.117 | 0.116 |  | 0.124 | 0.0781 |  |  |  | 0.112 | 0.0818 | 0.0991 | 0.0978 | 0.0746 | 0.113
M188S | 0.11 |  | 0.0954 | 0.0617 | 0.0972 |  | 0.129 | 0.113 | 0.0993 |  | 0.0853 | 0.101 | 0.116 | 0.0942 |  | 0.105 |  |  | 0.103
L205H | 0.0803 |  | 0.0673 | 0.0375 | 0.0717 |  | 0.0704 | 0.0657 |  | 0.0735 |  |  |  |  | 0.0757 | 0.0758 |  |  | 
Q198N | 0.109 | 0.101 |  |  | 0.0963 | 0.105 |  | 0.134 | 0.0983 |  |  |  | 0.113 |  | 0.103 |  | 0.0904 |  | 
Q198A | 0.108 | 0.0914 | 0.104 |  | 0.0801 |  | 0.0923 |  |  | 0.0926 | 0.0818 |  | 0.0766 | 0.103 |  | 0.133 |  | 0.0804 | 
Q198T | 0.114 | 0.0981 |  |  |  | 0.131 | 0.146 | 0.101 | 0.101 | 0.0495 | 0.097 |  | 0.147 | 0.116 | 0.0877 | 0.0866 | 0.0828 |  | 0.132
Q198L | 0.127 |  | 0.0938 | 0.0867 | 0.104 | 0.103 | 0.138 | 0.0957 | 0.0804 | 0.102 | 0.0829 |  | 0.13 |  | 0.0838 | 0.1 |  | 0.0843 | 0.0887
W199F | 0.103 | 0.0708 |  |  |  |  | 0.0751 |  | 0.0761 | 0.0875 | 0.0737 |  | 0.116 |  |  |  | 0.0959 |  | 
W199P | 0.0859 |  |  |  |  |  |  | 0.0552 |  | 0.0648 | 0.0613 | 0.0776 | 0.0545 | 0.0724 | 0.0765 |  | 0.0658 |  | 0.0854
A207K | 0.151 | 0.0899 |  |  | 0.124 | 0.129 | 0.102 |  |  |  |  |  | 0.118 |  |  |  |  | 0.137 | 
A207T | 0.108 |  |  | 0.13 | 0.13 | 0.129 | 0.0472 | 0.0918 | 0.111 | 0.0998 | 0.0968 | 0.153 |  | 0.102 | 0.0937 | 0.138 | 0.0876 | 0.115 | 0.132
